# These are yes or no findings as the source states them, for the method shown. For some of these results: In cells and extracts the contact can be indirect. Some binding calls cover weakened binding; strength is not graded here.
# Protein sequences, listed by entry. Tags and fused reporters are not part of them. Lines headed by an entry give the natural chain unless they say otherwise; changes in a name come on top. Residues count along the entry.
# UniProt Q14532: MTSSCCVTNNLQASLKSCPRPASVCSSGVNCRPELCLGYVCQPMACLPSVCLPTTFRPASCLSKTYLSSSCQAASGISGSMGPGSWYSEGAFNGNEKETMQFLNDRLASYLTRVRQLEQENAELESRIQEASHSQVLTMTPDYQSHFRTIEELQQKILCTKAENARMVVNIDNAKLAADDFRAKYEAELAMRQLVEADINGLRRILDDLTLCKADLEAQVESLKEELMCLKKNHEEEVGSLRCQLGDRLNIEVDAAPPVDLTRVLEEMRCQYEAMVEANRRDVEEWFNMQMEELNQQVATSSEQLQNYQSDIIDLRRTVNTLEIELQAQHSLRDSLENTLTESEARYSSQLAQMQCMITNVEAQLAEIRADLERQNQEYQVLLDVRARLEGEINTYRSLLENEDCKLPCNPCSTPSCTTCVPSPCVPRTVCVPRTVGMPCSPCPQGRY
# UniProt Q9Y6K9: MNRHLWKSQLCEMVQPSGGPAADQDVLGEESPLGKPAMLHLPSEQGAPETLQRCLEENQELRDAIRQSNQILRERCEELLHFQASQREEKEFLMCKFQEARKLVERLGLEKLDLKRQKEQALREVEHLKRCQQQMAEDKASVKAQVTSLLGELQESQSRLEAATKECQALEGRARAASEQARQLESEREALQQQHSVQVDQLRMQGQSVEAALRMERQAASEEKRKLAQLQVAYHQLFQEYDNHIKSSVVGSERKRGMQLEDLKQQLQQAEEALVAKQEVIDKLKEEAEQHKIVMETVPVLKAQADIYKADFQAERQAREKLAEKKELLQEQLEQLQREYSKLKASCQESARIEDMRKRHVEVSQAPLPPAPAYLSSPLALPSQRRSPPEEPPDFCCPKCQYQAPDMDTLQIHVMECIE
# GST-NEMO (120-419aa) fusion protein: residues 120-419 of Q9Y6K9
# UniProt P25963: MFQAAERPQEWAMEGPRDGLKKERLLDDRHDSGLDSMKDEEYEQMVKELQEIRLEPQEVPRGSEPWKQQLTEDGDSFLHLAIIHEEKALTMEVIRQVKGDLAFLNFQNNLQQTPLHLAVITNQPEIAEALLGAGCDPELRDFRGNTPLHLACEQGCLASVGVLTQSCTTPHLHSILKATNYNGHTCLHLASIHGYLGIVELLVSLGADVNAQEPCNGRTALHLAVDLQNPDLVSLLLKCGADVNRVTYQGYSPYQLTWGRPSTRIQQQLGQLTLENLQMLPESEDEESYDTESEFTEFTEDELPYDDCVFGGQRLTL
# Experiments:
# [1] = molecular target: GST-KRT32 (human) (UniProt Q14532); assay: pull-down; GST-KRT32 incubated 12 h with excess His-tagged NEMO, IKKα, IKKβ or IκBα, glutathione-Sepharose beads, Western blot with anti-GST and anti-His; both purified
# [2] = molecular target: NEMO (endogenous) (human (endogenous in primary keratinocytes, Ker-CT and skin)) (UniProt Q9Y6K9); assay: proximity ligation; Duolink PLA on fixed Ker-CT cells overexpressing Flag-tagged KRT32 wildtype or mutations; anti-Flag and anti-NEMO; foci per cell counted
# [3] = molecular target: NEMO (endogenous) (human (endogenous in primary keratinocytes, Ker-CT and skin)) (UniProt Q9Y6K9); assay: proximity ligation; Duolink PLA on 3 μm paraffin sections of normal human adult skin; anti-NEMO and anti-KRT32
# [4] = molecular target: NEMO (endogenous) (human (endogenous in primary keratinocytes, Ker-CT and skin)) (UniProt Q9Y6K9); assay: proximity ligation; Duolink PLA on fixed primary keratinocytes and Ker-CT cells; anti-NEMO and anti-KRT32; IgG as negative control
# [5] = molecular target: NEMO (endogenous) (human (endogenous in primary keratinocytes, Ker-CT and skin)) (UniProt Q9Y6K9); assay: co-IP; endogenous; anti-NEMO antibody and Protein A/G-Agarose, overnight at 4 °C, Nonidet P-40 lysates of primary keratinocytes and Ker-CT cells
# [6] = molecular target: GST-NEMO fusion protein (UniProt Q9Y6K9); assay: pull-down; GST-NEMO fusion protein incubated with E. coli extracts containing WT or mutant His-KRT32; glutathione-agarose beads; Western blot; only the target purified
# [7] = molecular target: GST-NEMO (120-419aa) fusion protein (UniProt Q9Y6K9); assay: pull-down; GST-NEMO (120-419aa) incubated with excess E. coli extracts containing His-KRT32 (wildtype or six mutants), His-IKKα and His-IKKβ; glutathione-Sepharose beads; Western blot; competition; only the target purified
# [8] = molecular target: GST-KRT32 (human) (UniProt Q14532); assay: pull-down; GST-KRT32 (GST as control) incubated with lysates of primary keratinocytes and Ker-CT cells, glutathione-Sepharose beads, Western blot with anti-NEMO; only the target purified
# [9] = molecular target: Flag-tagged NEMO (UniProt Q9Y6K9); assay: co-IP; HEK293T co-transfected with HA-KRT32 and Flag-NEMO for 24 h, Nonidet P-40 lysis buffer, agarose-conjugated anti-DYKDDDDK for 2 h, Western blot
substance,measurement,setting,value
His-tagged IκBα (from UniProt P25963 1-317),binding,[1],no binding
His-tagged NEMO (from UniProt Q9Y6K9 1-419),binding,[1],binds
Flag-tagged KRT32 wildtype (from UniProt Q14532 1-448),binding,[2],binds
KRT32 (endogenous) (from UniProt Q14532 1-448),binding,[3],binds
same,binding,[4],binds
same,binding,[5],binds
His-KRT32 wild type (from UniProt Q14532 1-448),binding,[6],binds
same,binding,[7],binds
NEMO (endogenous) (from UniProt Q9Y6K9 1-419),binding,[8],binds
HA-KRT32 (from UniProt Q14532 1-448),binding,[9],binds
